In the supplement of paper PMC10338343:
± gives the standard deviation. The entries are a selection whose mix differs from that of the whole data set.

test system: MIWI (PIWIL1) piRISC loaded with piRNA #1 (30 nt); test: pre-steady-state target cleavage rate (min^-1); MIWI and MILI are mouse PIWI proteins and EfPiwi is from a freshwater sponge; tags in brackets are library labels; higher = faster piRNA-guided slicing of the target; settings: guide: piRNA #1 5'p-UGAGGUAGUAGGUUGUAUAGUAUCCAGAGG; auxiliary factor: 500 nM mouse GTSF1
How it was run: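 The pre-steady-state cleavage rate was obtained by Cleave-'n-Seq with a burst-and-steady-state fit. A transcribed, DNA-blocked target RNA library (0.1 nM) was mixed with 1 nM active affinity-purified piRISC carrying one synthetic guide, with or without 500 nM GTSF1 partner protein, in HEPES–potassium acetate buffer at 33 °C for 0–8 or 0–960 min. Uncleaved targets were sequenced and normalised to depth and to weakly complementary targets, with three trials pooled and k3 capped at 0.0001 min^-1.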

Point of comparison: GGAGACCUAUCUAUACUACCUACUAGCUCA, “pre-steady-state target cleavage rate” value 0.00936 ± 0.0028. Against it:
- CCUCUGGAUACUAAACAACGUACUACCUCA — higher, 1.07 ± 0.071
- GGAGACCUAUGAUAUGUACCUUCUACCUCA — lower, < 0.0001
- GCUCUGGUUACUAUACAACCUACUACGUCA — higher, 0.654 ± 0.071
- CCUCUGGAAACUAUACAACCUACUACCUGA — higher, 0.67 ± 0.083
- GGAGACCAUACUAUACAAGCUACUACCUCA — higher, 0.952 ± 0.049
- GGAGUGGAUACUAUUCAAGCUACUACCUCA — higher, 0.915 ± 0.039
- GGAGACCUAUCUAUUCAACCUACAACCUCA — within error, 0.0157 ± 0.0039
- GCUCUGCUAACUAUACAACCUACUACCUCA — higher, 1.68 ± 0.11
- GGAGUGGAUACUAUACAAGGAACUACCUCA — within error, 0.0048 ± 0.0021
- GGACAGGAUACUAUACAACCUACUAGCUCA — higher, 0.086 ± 0.014
- GGAGUGGAUACUAUACAACUACUACCUCA — higher, 0.496 ± 0.035
- GGAGACGAUACUAUACAACGUACUACCACA — higher, 0.766 ± 0.072
- GCUCUGGAAUCUAUACAACCUACUACCUCA — higher, 1.58 ± 0.099
- GGACUGGAUACUAUACACCCUACUACCUCA — higher, 1.58 ± 0.13
- GGAGACCAAACUAAACAACCUACUACCUCA — higher, 0.438 ± 0.081
- GGAGACCUUACUAAACAACCUACUACCACA — higher, 0.318 ± 0.036
- GGAGACCAUACAAUACAACCUACAACCUCA — higher, 0.309 ± 0.062
- GGAGACCUAUGAUAUGUUGGAACUACCACA — lower, < 0.0001
- GGAGACCAUAGUAUACAACCUACUACCUCA — higher, 0.783 ± 0.048
- GGAGACCUAACUAUUCAACCUACUACGUCA — higher, 0.223 ± 0.035
- GCUCUGGAUAGAAUACAACCUACUACCUCA — higher, 1.05 ± 0.051
- CCUCUGGAUACUAUACAACCUAGAACCUCA — higher, 0.361 ± 0.046
- GGAGAGGAGACUAUACAACCUACUACCUCA — higher, 1.32 ± 0.11
- GGAGACCUUACUAUACAACCUACUUGGAGA [g7:g22:cont:t1A] — higher, 0.0938 ± 0.021
- GGACUGGAUACUAUACUUGCUACUACCUCA — higher, 0.0254 ± 0.0063
- CCUCAGGAUACUAUUCAACCUACUACCUCA — higher, 2.22 ± 0.14
- GGAGACCAUAGUAUACAACCUUCUACCUCA — higher, 0.274 ± 0.033
- GGACGGGAUACUAUACAACCUACUACCUCA — higher, 1.66 ± 0.12
- GGAGACGAUACUAUACAUCCUACUACCUGA — higher, 0.738 ± 0.06
- GGAGACCUAUCUAUACAACGUUCUACCUCA — lower, 0.00333 ± 0.0029
- GGAGAGGAUCUAUACAACCUACUACCUCA — higher, 1.59 ± 0.09
- GGAGACCUAACUAUACAAUCUACUACCUCA — higher, 0.165 ± 0.016
- GGAGACCUAUCUAUACAACCAACUACCACA — within error, 0.0112 ± 0.0031
- CCUCUGGAUACUAUACAACCUACUUGGAGA [g7:g30:cont:t1A] — higher, 0.105 ± 0.026
- GCUCUGGAAACUAUACAACCUACUACGUCA — higher, 0.782 ± 0.077
- GCUCUGGAUACAAUACAACCUACUUCCUCA — higher, 0.575 ± 0.035
- GGAGACGAUACUAUACAACCUACGUACCUCA — higher, 0.685 ± 0.055
- GGAGACGAUACUUUUCAACCUACUACCUCA — higher, 0.957 ± 0.073
- GGUCUGGAUAGUAUACAACCUACUACCACA — higher, 0.341 ± 0.035
